The other results are listed elsewhere or left out.
Key:
HSkMC = human skeletal muscle cells; assay: cytotoxicity call (relative viability < 0.9); settings: 10 µM
HepG2 = assay: cytotoxicity call (relative viability < 0.9); settings: 10 µM
S. aureus RN4220 = assay: growth inhibition call (relative growth <= 0.2); settings: 50 µM

| Compound | cytotoxicity call (HSkMC) | cytotoxicity call (HepG2) | growth inhibition call (S. aureus RN4220) |
| --- | --- | --- | --- |
| COc1ccc(S(=O)(=O)Nc2ccc3c(c2)C(=O)N([C@@H](C)CO)C[C@@H](C)[C@@H](CN(C)C(=O)Nc2ccc4c(c2)OCO4)OCCCC[C@@H](C)O3)cc1 | inactive | active | inactive |
| O=C(NCc1ccncc1)C(=O)NC[C@H]1OCCN1S(=O)(=O)c1ccc(F)cc1 | inactive | inactive | inactive |
| COCC(=O)Nc1ccc2c(c1)OC[C@@H](C)N(Cc1cccc(F)c1)C[C@@H](C)[C@@H](OC)CN(C)C2=O | inactive | inactive | inactive |
| O=C(N[C@H]1CC[C@H](CCn2cc(C3(O)CCCC3)nn2)O[C@H]1CO)C1CCOCC1 | inactive | inactive | inactive |
| COc1ccc2c3c(n(c2c1)C)[C@@H](CO)N(C[C@]13CN(CC2CCOCC2)C1)C(=O)Cc1ccccn1 | inactive | inactive | inactive |
| C[C@H]1CN([C@@H](C)CO)C(=O)c2ccccc2-c2ccccc2CO[C@H]1CN(C)C(=O)c1cc(Cl)cc(Cl)c1 | inactive | inactive | inactive |
| CC(C)NC(=O)N[C@@H]1C=C[C@H](CC(=O)O)O[C@@H]1CO | inactive | inactive | inactive |
| O=C(C[C@H]1CC[C@@H]2[C@H](COC[C@@H](O)CN2S(=O)(=O)c2ccccc2F)O1)NCc1ccccc1Cl | inactive | inactive | inactive |
| C[C@H](CO)N1C[C@H](C)[C@H](CN(C)S(C)(=O)=O)Oc2ccc(NS(=O)(=O)c3ccc(Cl)cc3)cc2C1=O | inactive | inactive | inactive |
| CCNC(=O)N1CCCC[C@@H]1CO | inactive | inactive | inactive |
| C[C@@H]1CN([C@H](C)CO)C(=O)c2cc(NC(=O)c3ccccc3)ccc2O[C@@H](C)CCCCO[C@H]1CN(C)Cc1ccncc1 | inactive | inactive | inactive |
| C[C@H]1CN([C@@H](C)CO)C(=O)c2cccc(NS(=O)(=O)c3ccc(Cl)cc3)c2O[C@H]1CN(C)Cc1ccc(Cl)c(Cl)c1 | inactive | inactive | inactive |
| C[C@@H]1CCCCO[C@@H](CN(C)S(=O)(=O)c2ccc(Cl)cc2)[C@@H](C)CN([C@H](C)CO)C(=O)c2cc(NC(=O)CCC(F)(F)F)ccc2O1 | inactive | inactive | inactive |
| COc1ccc(S(=O)(=O)N(C)C[C@@H]2Oc3cc(-c4ccccc4OC)ccc3S(=O)(=O)N([C@@H](C)CO)C[C@H]2C)cc1 | inactive | inactive | inactive |
| COc1ccc(S(=O)(=O)N(C)C[C@@H]2Oc3c(NC(=O)Nc4cccc5ccccc45)cccc3C(=O)N(C(C)C)C[C@H]2C)cc1 | inactive | inactive | inactive |
| Cc1noc(C)c1S(=O)(=O)Nc1ccc2c(c1)C(=O)N([C@H](C)CO)C[C@@H](C)[C@H](CN(C)C(=O)Nc1ccccc1)O2 | inactive | inactive | inactive |
| C/C=C/c1ccc2c(c1)O[C@H](CN(C)Cc1ccc(C(=O)O)cc1)[C@@H](C)CN([C@H](C)CO)S2(=O)=O | inactive | inactive | inactive |
| Cc1noc(C)c1NC(=O)Nc1ccc2c(c1)C(=O)N([C@@H](C)CO)C[C@@H](C)[C@@H](CN(C)C(=O)Nc1cccc3ccccc13)O2 | inactive | inactive | inactive |
| O=C(C[C@H]1C[C@H]2c3cc(NS(=O)(=O)c4ccccc4)ccc3O[C@H]2[C@@H](CO)O1)NC1CCCCC1 | inactive | inactive | inactive |

| Compound | cytotoxicity call (HSkMC) | cytotoxicity call (HepG2) | growth inhibition call (S. aureus RN4220) |
| --- | --- | --- | --- |
| CC(C)C[C@@H](NC(=O)[C@@H](C)N)C(=O)O | inactive | inactive | inactive |
| COC(=O)CC[C@H]1CCCNC1 | inactive | inactive | inactive |
| Cc1noc(C)c1NC(=O)Nc1ccc2c(c1)C(=O)N([C@@H](C)CO)C[C@@H](C)[C@H](CN(C)Cc1ccc3c(c1)OCO3)OCCCC[C@H](C)O2 | inactive | inactive | inactive |
| COc1ccc(NC(=O)Nc2ccc3c(c2)[C@@H]2C[C@@H](CC(=O)N4CCN(C)CC4)O[C@@H](CO)[C@@H]2O3)cc1 | inactive | inactive | inactive |
| CC(C)C1=CC2=CC[C@H]3[C@](C)(CO)CCC[C@]3(C)[C@@H]2CC1 | inactive | inactive | inactive |
| CC(C)NC(=O)N(C)C[C@@H]1Oc2ccc(NS(=O)(=O)c3ccc(F)cc3)cc2CC(=O)N([C@H](C)CO)C[C@@H]1C | inactive | inactive | inactive |
| C[C@@H]1CN([C@@H](C)CO)C(=O)c2cc(NC(=O)NC3CCCCC3)ccc2O[C@@H](C)CCCCO[C@@H]1CN(C)S(=O)(=O)c1ccccc1 | inactive | inactive | inactive |
| C[C@H]1CN([C@@H](C)CO)C(=O)c2ccccc2-c2ccccc2CO[C@H]1CN(C)Cc1ccc(-c2ccccc2)cc1 | inactive | inactive | inactive |
| CN1CCN(C(=O)C[C@H]2C=C[C@H](NC(=O)c3ccc4c(c3)OCO4)[C@@H](CO)O2)CC1 | inactive | inactive | inactive |
| Cc1ccc(S(=O)(=O)N(C)C[C@H]2OCCCC[C@H](C)Oc3ccc(NC(=O)Nc4ccc(F)cc4)cc3C(=O)N([C@H](C)CO)C[C@H]2C)cc1 | inactive | inactive | inactive |
| CC(C)NC(=O)Nc1ccc2c(c1)C(=O)N([C@@H](C)CO)C[C@H](C)[C@H](CN(C)Cc1ccc(C(=O)O)cc1)O2 | inactive | inactive | inactive |
| C[C@H]1CCCCO[C@H](CN(C)CC2CCCCC2)[C@@H](C)CN([C@@H](C)CO)C(=O)c2cc(NS(=O)(=O)c3ccccc3)ccc2O1 | inactive | inactive | inactive |
| NC(=O)c1cc2ccccc2o/c1=N\O | inactive | inactive | inactive |
| Cn1nnc2c1CCN(C(=O)CS(C)(=O)=O)[C@@H]2COCC1CC1 | inactive | inactive | inactive |
| O=C(C[C@@H]1C=C[C@@H](NC(=O)c2cccnc2)[C@H](CO)O1)NCCN1CCCCC1 | inactive | inactive | inactive |
| CCN(CC)CCCC(C)Nc1c2ccc(Cl)cc2nc2ccc(OC)cc12.Cl.Cl (stereo unspecified) | inactive | active | inactive |
| C[C@H](CO)N1C[C@H](C)[C@H](CN(C)C(=O)Nc2ccc(Cl)cc2)OCCCC[C@H](C)Oc2ccc(NC(=O)C3CCCCC3)cc2C1=O | inactive | inactive | inactive |
| C[C@H](CO)N1C[C@H](C)[C@H](CN(C)C(=O)Cc2ccccn2)Oc2ncc(-c3cccc(C(=O)N(C)C)c3)cc2C1=O | inactive | inactive | inactive |
| C[C@H]1CN([C@@H](C)CO)C(=O)c2cccc(NS(=O)(=O)c3ccc(F)cc3)c2O[C@H]1CN(C)CC1CC1 | inactive | inactive | inactive |

| Compound | cytotoxicity call (HSkMC) | cytotoxicity call (HepG2) | growth inhibition call (S. aureus RN4220) |
| --- | --- | --- | --- |
| CO[C@H]1CN(C)C(=O)c2cc(NS(C)(=O)=O)ccc2OC[C@H](C)N(S(C)(=O)=O)C[C@@H]1C | inactive | inactive | inactive |
| C[C@@H]1CN([C@@H](C)CO)C(=O)c2cc(NC(=O)CCC(F)(F)F)ccc2O[C@@H]1CN(C)C(=O)Nc1cccc2ccccc12 | inactive | inactive | inactive |
| C[C@@H]1CN([C@H](C)CO)C(=O)c2cc(NC(=O)Nc3ccc4c(c3)OCO4)ccc2O[C@@H](C)CCCCO[C@@H]1CN(C)Cc1ccncc1 | inactive | inactive | inactive |
| C[C@@H]1CN([C@H](C)CO)C(=O)c2c(c3ccccc3n2C)-c2ccccc2CO[C@@H]1CN(C)C(=O)c1ccc(F)cc1 | inactive | inactive | inactive |
| Cc1nccn1CCN | inactive | inactive | inactive |
| CCO[C@H]1OC(C(=O)N2CCN(Cc3ccccc3)CC2)=C[C@@H](C)[C@@H]1CCCOC(=O)NCCCCCC(=O)NO | inactive | inactive | inactive |
| Cc1ccc(S[C@]2(C(=O)O)CC(=O)N(Cc3cc(C(F)(F)F)cc(C(F)(F)F)c3)[C@@H]2c2ccc(CO)cc2)cc1 | inactive | inactive | inactive |
| C[C@H]1CN([C@@H](C)CO)C(=O)c2cc(C#Cc3cccnc3)cnc2O[C@H]1CN(C)S(=O)(=O)c1ccccc1F | inactive | inactive | inactive |
| C[C@@H]1COC(=O)[C@H](CC(=O)OC(C)(C)C)CC=CC[C@@H](CC(=O)N[C@@H](CO)Cc2ccccc2)C(=O)N1 | inactive | inactive | inactive |
| Nc1nc(=O)[nH]cc1NC(=O)c1ccccc1 | inactive | inactive | inactive |
| CC(C)COC(=O)OCN1C(=O)CN(CCN2CC(=O)N(COC(=O)OCC(C)C)C(=O)C2)CC1=O | inactive | inactive | inactive |
| C[C@H]1CCCCO[C@@H](CN(C)CC2CCCCC2)[C@@H](C)CN([C@@H](C)CO)C(=O)c2cc(NC(=O)c3ccncc3)ccc2O1 | inactive | inactive | inactive |
| C[C@H](CO)N1C[C@H](C)[C@@H](CN(C)S(C)(=O)=O)OCCCC[C@H](C)Oc2ccc(NC(=O)Nc3cccc4ccccc34)cc2C1=O | inactive | inactive | inactive |
| C[C@@H]1CN([C@@H](C)CO)C(=O)c2cccc(NS(=O)(=O)c3cn(C)cn3)c2O[C@H]1CN(C)Cc1ccccc1 | inactive | inactive | inactive |
| COc1ccc(NC(=O)N(C)C[C@H]2Oc3ncc(C#CCN(C)C)cc3C(=O)N([C@H](C)CO)C[C@@H]2C)cc1 | inactive | inactive | inactive |
| COc1ccc(CNC(=O)C[C@@H]2CC[C@H]3[C@H](COc4ccc(NC(=O)C5CC5)cc4C(=O)N3C)O2)cc1 | inactive | inactive | inactive |
| CO[C@@H]1CN(C)C(=O)c2cc(NC(=O)Nc3cccc(F)c3)ccc2OC[C@@H](C)N(C(=O)Nc2c(C)noc2C)C[C@@H]1C | inactive | inactive | inactive |
| CN1CCN(C(=O)C[C@@H]2CC[C@@H]3[C@H](COC[C@@H](O)CN3Cc3ccc4c(c3)OCO4)O2)CC1 | inactive | inactive | inactive |
| CC1c2cccc(O)c2C(=O)C2=C(O)C3(O)C(=O)C(C(N)=O)=C(O)C(N(C)C)C3C(O)C21.Cl (stereo unspecified) | inactive | inactive | inactive |
